# Experimental data published in the supplement of paper PMC8728848.
# Some of the results follow.
# B1: Fm1D (Escherichia coli) (protein)
# chain: FSCNVDGGSSIGAGTTSVYVNLDPVIQPGQNLVVDLSQHISCWNDYGGWYDTDHINLVQGSAFAGSLQSYKGSLYWNNVTYPFPLTTNTNVLDIGDKTPMPLPLKLYITPVGAAGGVVIKAGEVIARIHMYKIATLGSGNPRNFTWNIISNNSVVMPTHHHHHH
# Experiments:
# Assay in all cases: glycan array binding signal (z-score within array); higher = stronger binding
# Settings in all cases: glycan notation: IUPAC condensed, linker removed
# [1] = target: GlcNAc(b1-3)Gal(b1-4)GlcNAc(b1-3)GalNAc
# Summary of the method: (§1)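 Columns mapping to the same glycan were averaged after glycan names were converted to IUPAC-condensed notation. The data come from 3228 arrays in the Consortium for Functional Glycomics database, limited to those with an available protein sequence. Binding is reported as a within-array Z-score averaged across arrays of one protein sequence and across linkers.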
# [2] = target: GlcNAc(b1-3)Gal(b1-4)GlcNAc(b1-3)[GlcNAc(b1-3)Gal(b1-4)GlcNAc(b1-3)]GalNAc
# Summary of the method: as §1
# [3] = target: GlcNAc(b1-3)Gal(b1-4)GlcNAc(b1-6)[Gal(b1-3)]GalNAc
# Summary of the method: as §1
# [4] = target: GlcNAc(b1-3)Gal(b1-4)GlcNAc(b1-6)[GlcNAc(b1-3)Gal(b1-3)]GalNAc
# Summary of the method: as §1
# [5] = target: GlcNAc(b1-3)Gal(b1-4)GlcNAc(b1-6)[GlcNAc(b1-3)]Gal(b1-4)GlcNAc
# Summary of the method: as §1
# GlcNAc(b1-3)GalNAc = target: GlcNAc(b1-3)GalNAc
# Summary of the method: as §1
# GlcNAc(b1-3)Man = target: GlcNAc(b1-3)Man
# Summary of the method: as §1
# [6] = target: GlcNAc(b1-3)[GlcNAc(b1-4)][GlcNAc(b1-6)]GlcNAc
# Summary of the method: as §1
# [7] = target: GlcNAc(b1-3)[GlcNAc(b1-6)]Gal(b1-4)GlcNAc
# Summary of the method: as §1
# [8] = target: GlcNAc(b1-3)[GlcNAc(b1-6)]GalNAc
# Summary of the method: as §1
# [9] = target: GlcNAc(b1-4)Gal(b1-4)GlcNAc
# Summary of the method: as §1
# GlcNAc(b1-4)GlcNAc = target: GlcNAc(b1-4)GlcNAc
# Summary of the method: as §1
# [10] = target: GlcNAc(b1-4)GlcNAc(b1-4)GlcNAc
# Summary of the method: as §1
# [11] = target: GlcNAc(b1-4)GlcNAc(b1-4)GlcNAc(b1-4)GlcNAc(b1-4)GlcNAc
# Summary of the method: as §1
# [12] = target: GlcNAc(b1-4)GlcNAc(b1-4)GlcNAc(b1-4)GlcNAc(b1-4)GlcNAc(b1-4)GlcNAc
# Summary of the method: as §1
# [13] = target: GlcNAc(b1-4)[GlcNAc(b1-6)]GalNAc
# Summary of the method: as §1
# [14] = target: GlcNAc(b1-6)Gal(b1-4)GlcNAc
# Summary of the method: as §1
# GlcNAc(b1-6)GalNAc = target: GlcNAc(b1-6)GalNAc
# Summary of the method: as §1
# [15] = target: GlcNAc6S(b1-3)Gal(b1-4)GlcNAc
# Summary of the method: as §1
# Kdn(a2-3)Gal(b1-3)GalNAc = target: Kdn(a2-3)Gal(b1-3)GalNAc
# Summary of the method: as §1
# Kdn(a2-3)Gal(b1-3)GlcNAc = target: Kdn(a2-3)Gal(b1-3)GlcNAc
# Summary of the method: as §1
# Kdn(a2-3)Gal(b1-4)Glc = target: Kdn(a2-3)Gal(b1-4)Glc
# Summary of the method: as §1
# Kdn(a2-3)Gal(b1-4)GlcNAc = target: Kdn(a2-3)Gal(b1-4)GlcNAc
# Summary of the method: as §1
# [16] = target: Kdn(a2-3)Gal(b1-4)[Fuc(a1-3)]GlcNAc
# Summary of the method: as §1
# Kdn(a2-6)Gal(b1-4)GlcNAc = target: Kdn(a2-6)Gal(b1-4)GlcNAc
# Summary of the method: as §1
# [17] = target: Man(a1-2)Man(a1-2)Man(a1-3)Man
# Summary of the method: as §1
# [18] = target: Man(a1-2)Man(a1-2)Man(a1-6)[Man(a1-3)]Man
# Summary of the method: as §1
# Man(a1-2)Man(a1-3)Man = target: Man(a1-2)Man(a1-3)Man
# Summary of the method: as §1
# [19] = target: Man(a1-2)Man(a1-3)[Man(a1-2)Man(a1-6)]Man
# Summary of the method: as §1
# [20] = target: Man(a1-2)Man(a1-3)[Man(a1-2)Man(a1-6)]Man(a1-6)[Man(a1-2)Man(a1-2)Man(a1-3)]Man
# Summary of the method: as §1
# [21] = target: Man(a1-2)Man(a1-3)[Man(a1-2)Man(a1-6)]Man(a1-6)[Man(a1-2)Man(a1-2)Man(a1-3)]Man(b1-4)GlcNAc(b1-4)GlcNAc
# Summary of the method: as §1
# [22] = target: Man(a1-2)Man(a1-3)[Man(a1-6)]Man(a1-6)[Man(a1-2)Man(a1-3)]Man(b1-4)GlcNAc(b1-4)GlcNAc
# Summary of the method: as §1
# [23] = target: Man(a1-2)Man(a1-6)[Man(a1-3)]Man(a1-6)[Man(a1-2)Man(a1-2)Man(a1-3)]Man
# Summary of the method: as §1
# [24] = target: Man(a1-2)Man(a1-6)[Man(a1-3)]Man(a1-6)[Man(a1-2)Man(a1-2)Man(a1-3)]Man(b1-4)GlcNAc(b1-4)GlcNAc
# Summary of the method: as §1
# Man(a1-3)[Man(a1-6)]Man = target: Man(a1-3)[Man(a1-6)]Man
# Summary of the method: as §1
# [25] = target: Man(a1-3)[Man(a1-6)]Man(a1-6)[Man(a1-2)Man(a1-3)]Man(b1-4)GlcNAc(b1-4)GlcNAc
# Summary of the method: as §1
# [26] = target: Man(a1-3)[Man(a1-6)]Man(a1-6)[Man(a1-3)]Man
# Summary of the method: as §1
# [27] = target: Man(a1-3)[Man(a1-6)]Man(a1-6)[Man(a1-3)]Man(b1-4)GlcNAc(b1-4)GlcNAc
# Summary of the method: as §1
# [28] = target: Man(a1-3)[Man(a1-6)]Man(b1-4)GlcNAc(b1-4)GlcNAc
# Summary of the method: as §1
# [29] = target: Man(a1-3)[Man(a1-6)]Man(b1-4)GlcNAc(b1-4)[Fuc(a1-6)]GlcNAc
# Summary of the method: as §1
# Man(a1-6)Man = target: Man(a1-6)Man
# Summary of the method: as §1
# Man(b1-4)GlcNAc = target: Man(b1-4)GlcNAc
# Summary of the method: as §1
# MurNAc(b1-4)GlcNAc = target: MurNAc(b1-4)GlcNAc
# Summary of the method: as §1
# Neu5Ac(a2-3)Gal = target: Neu5Ac(a2-3)Gal
# Summary of the method: as §1
# [30] = target: Neu5Ac(a2-3)Gal(b1-3)GalNAc
# Summary of the method: as §1
binder,measurement,setting,value
B1,glycan array binding signal (z-score),[1],-0.145
same,glycan array binding signal (z-score),[2],-0.138
same,glycan array binding signal (z-score),[3],4.57
same,glycan array binding signal (z-score),[4],-0.145
same,glycan array binding signal (z-score),[5],-0.143
same,glycan array binding signal (z-score),GlcNAc(b1-3)GalNAc,-0.143
same,glycan array binding signal (z-score),GlcNAc(b1-3)Man,-0.146
same,glycan array binding signal (z-score),[6],-0.145
same,glycan array binding signal (z-score),[7],-0.139
same,glycan array binding signal (z-score),[8],-0.143
same,glycan array binding signal (z-score),[9],-0.145
same,glycan array binding signal (z-score),GlcNAc(b1-4)GlcNAc,-0.137
same,glycan array binding signal (z-score),[10],-0.141
same,glycan array binding signal (z-score),[11],-0.141
same,glycan array binding signal (z-score),[12],-0.139
same,glycan array binding signal (z-score),[13],-0.144
same,glycan array binding signal (z-score),[14],-0.134
same,glycan array binding signal (z-score),GlcNAc(b1-6)GalNAc,-0.11
same,glycan array binding signal (z-score),[15],-0.144
same,glycan array binding signal (z-score),Kdn(a2-3)Gal(b1-3)GalNAc,-0.14
same,glycan array binding signal (z-score),Kdn(a2-3)Gal(b1-3)GlcNAc,-0.145
same,glycan array binding signal (z-score),Kdn(a2-3)Gal(b1-4)Glc,-0.144
same,glycan array binding signal (z-score),Kdn(a2-3)Gal(b1-4)GlcNAc,-0.146
same,glycan array binding signal (z-score),[16],-0.13
same,glycan array binding signal (z-score),Kdn(a2-6)Gal(b1-4)GlcNAc,-0.151
same,glycan array binding signal (z-score),[17],-0.145
same,glycan array binding signal (z-score),[18],-0.142
same,glycan array binding signal (z-score),Man(a1-2)Man(a1-3)Man,-0.148
same,glycan array binding signal (z-score),[19],-0.147
same,glycan array binding signal (z-score),[20],-0.148
same,glycan array binding signal (z-score),[21],-0.141
same,glycan array binding signal (z-score),[22],-0.153
same,glycan array binding signal (z-score),[23],-0.147
same,glycan array binding signal (z-score),[24],-0.144
same,glycan array binding signal (z-score),Man(a1-3)[Man(a1-6)]Man,-0.142
same,glycan array binding signal (z-score),[25],-0.144
same,glycan array binding signal (z-score),[26],-0.147
same,glycan array binding signal (z-score),[27],-0.14
same,glycan array binding signal (z-score),[28],-0.144
same,glycan array binding signal (z-score),[29],-0.142
same,glycan array binding signal (z-score),Man(a1-6)Man,-0.15
same,glycan array binding signal (z-score),Man(b1-4)GlcNAc,-0.148
same,glycan array binding signal (z-score),MurNAc(b1-4)GlcNAc,-0.142
same,glycan array binding signal (z-score),Neu5Ac(a2-3)Gal,-0.147
same,glycan array binding signal (z-score),[30],-0.146
